Experimental data reported in the GPR68 mutational scans of Howard et al. (2025).

B1: GPR68, Q15743 (parent)
chain: MGNITADNSSMSCTIDHTIHQTLAPVVYVTVLVVGFPANCLSLYFGYLQIKARNELGVYLCNLTVADLFYICSLPFWLQYVLQHDNWSHGDLSCQVCGILLYENIYISVGFLCCISVDRYLAVAHPFRFHQFRTLKAAVGVSVVIWAKELLTSIYFLMHEEVIEDENQHRVCFEHYPIQAWQRAINYYRFLVGFLFPICLLLASYQGILRAVRRSHGTQKSRKDQIQRLVLSTVVIFLACFLPYHVLLLVRSVWEASCDFAKGVFNAYHFSLLLTSFNCVADPVLYCFVSETTHRDLARLRGACLAFLTCSRTGRAREAYPLGAPEASGKSGAQGEEPELLTKLHPAFQTPNSPGSGGFPTGRLA

Key:
[1] = variants of: B1; test: cAMP reporter score (Enrich2 score, wild type = 0); higher = more signal; HEK293T, FACS bins
[2] = variants of: B1; test: surface expression score (Enrich2 score, wild type = 0); higher = more signal; HEK293T, FACS bins

Variant	cAMP reporter score ([1]; pH 6)	cAMP reporter score ([1]; pH 6, modulator: ogerin)	surface expression score [2]	cAMP reporter score ([1]; pH 6.5, modulator: ogerin)
MGNITADNSSMSCTIDHTIHQTLAPVVYVTVLVVGFPANCLSLYFGYLQIKARNELGVYLCNLTVADLFYICSLPFWLQYVLQHDNWSHGDLSCQVCGILLYENIYISVGFLCCISVDRYLAVAHPFRFHQFRTLKAAVGVSVVIDAKELLTSIYFLMHEEVIEDENQHRVCFEHYPIQAWQRAINYYRFLVGFLFPICLLLASYQGILRAVRRSHGTQKSRKDQIQRLVLSTVVIFLACFLPYHVLLLVRSVWEASCDFAKGVFNAYHFSLLLTSFNCVADPVLYCFVSETTHRDLARLRGACLAFLTCSRTGRAREAYPLGAPEASGKSGAQGEEPELLTKLHPAFQTPNSPGSGGFPTGRLA [W146D]	-1.02	-3.36	-1.31	–
MGNITADNSSMSCTIDHTIHQTLAPVVYVTVLVVGFPANCLSLYFGYLQIKARNELGVYLCNLTVADLFYICSLPFWLQYVLQHDNWSHGDLSCQVCGILLYENIYISVGFLCCISVDRYLAVAHPFRFHQFRTLKAAVGVSVVISAKELLTSIYFLMHEEVIEDENQHRVCFEHYPIQAWQRAINYYRFLVGFLFPICLLLASYQGILRAVRRSHGTQKSRKDQIQRLVLSTVVIFLACFLPYHVLLLVRSVWEASCDFAKGVFNAYHFSLLLTSFNCVADPVLYCFVSETTHRDLARLRGACLAFLTCSRTGRAREAYPLGAPEASGKSGAQGEEPELLTKLHPAFQTPNSPGSGGFPTGRLA [W146S]	-0.877	–	–	-0.526
MGNITADNSSMSCTIDHTIHQTLAPVVYVTVLVVGFPANCLSLYFGYLQIKARNELGVYLCNLTVADLFYICSLPFWLQYVLQHDNWSHGDLSCQVCGILLYENIYISVGFLCCISVDRYLAVAHPFRFHQFRTLKAAVGVSVVIEAKELLTSIYFLMHEEVIEDENQHRVCFEHYPIQAWQRAINYYRFLVGFLFPICLLLASYQGILRAVRRSHGTQKSRKDQIQRLVLSTVVIFLACFLPYHVLLLVRSVWEASCDFAKGVFNAYHFSLLLTSFNCVADPVLYCFVSETTHRDLARLRGACLAFLTCSRTGRAREAYPLGAPEASGKSGAQGEEPELLTKLHPAFQTPNSPGSGGFPTGRLA [W146E]	-0.19	-2.11	-2.3	-1.6
MGNITADNSSMSCTIDHTIHQTLAPVVYVTVLVVGFPANCLSLYFGYLQIKARNELGVYLCNLTVADLFYICSLPFWLQYVLQHDNWSHGDLSCQVCGILLYENIYISVGFLCCISVDRYLAVAHPFRFHQFRTLKAAVGVSVVIAAKELLTSIYFLMHEEVIEDENQHRVCFEHYPIQAWQRAINYYRFLVGFLFPICLLLASYQGILRAVRRSHGTQKSRKDQIQRLVLSTVVIFLACFLPYHVLLLVRSVWEASCDFAKGVFNAYHFSLLLTSFNCVADPVLYCFVSETTHRDLARLRGACLAFLTCSRTGRAREAYPLGAPEASGKSGAQGEEPELLTKLHPAFQTPNSPGSGGFPTGRLA [W146A]	-0.434	–	-2.94	-0.601
MGNITADNSSMSCTIDHTIHQTLAPVVYVTVLVVGFPANCLSLYFGYLQIKARNELGVYLCNLTVADLFYICSLPFWLQYVLQHDNWSHGDLSCQVCGILLYENIYISVGFLCCISVDRYLAVAHPFRFHQFRTLKAAVGVSVVIMAKELLTSIYFLMHEEVIEDENQHRVCFEHYPIQAWQRAINYYRFLVGFLFPICLLLASYQGILRAVRRSHGTQKSRKDQIQRLVLSTVVIFLACFLPYHVLLLVRSVWEASCDFAKGVFNAYHFSLLLTSFNCVADPVLYCFVSETTHRDLARLRGACLAFLTCSRTGRAREAYPLGAPEASGKSGAQGEEPELLTKLHPAFQTPNSPGSGGFPTGRLA [W146M]	-1.17	-2.83	-3.72	-1.3
V144_I145del	-0.635	–	-2.69	-1.61

The least precise scores are not listed. Not listed are two conditions whose scores span a narrow range. Names with del lack the residues named; names with ins carry added residues between the positions named. For some of these results: How much ogerin was present is not stated here.
